Experimental findings from patent US20150017170A1, “BIOMARKER FOR SELECTING A SUBJECT FOR APPLICATION OF AN ANTI-C-MET ANTIBODY” (Samsung Electronics Co., Ltd., priority 2013, published 2015) are described below.

Holding throughout (details): among huAbF46-H4-A1, -A2, -A3, -A5
One test relates to Akt. The test can be described thus: Akt phosphorylation by the four affinity-matured antibodies. It counts as cell-based.
The target of test [1] is T1, c-Met (Homo sapiens, UniProt P08581). Put plainly: c-Met degradation degree of the four affinity-matured antibodies. It is filed as cell-based. Also noted: endogenous in cells; host or cells: EBC1 cells (JCRB JCRB0820).
T1 sequence (P08581 25-1390): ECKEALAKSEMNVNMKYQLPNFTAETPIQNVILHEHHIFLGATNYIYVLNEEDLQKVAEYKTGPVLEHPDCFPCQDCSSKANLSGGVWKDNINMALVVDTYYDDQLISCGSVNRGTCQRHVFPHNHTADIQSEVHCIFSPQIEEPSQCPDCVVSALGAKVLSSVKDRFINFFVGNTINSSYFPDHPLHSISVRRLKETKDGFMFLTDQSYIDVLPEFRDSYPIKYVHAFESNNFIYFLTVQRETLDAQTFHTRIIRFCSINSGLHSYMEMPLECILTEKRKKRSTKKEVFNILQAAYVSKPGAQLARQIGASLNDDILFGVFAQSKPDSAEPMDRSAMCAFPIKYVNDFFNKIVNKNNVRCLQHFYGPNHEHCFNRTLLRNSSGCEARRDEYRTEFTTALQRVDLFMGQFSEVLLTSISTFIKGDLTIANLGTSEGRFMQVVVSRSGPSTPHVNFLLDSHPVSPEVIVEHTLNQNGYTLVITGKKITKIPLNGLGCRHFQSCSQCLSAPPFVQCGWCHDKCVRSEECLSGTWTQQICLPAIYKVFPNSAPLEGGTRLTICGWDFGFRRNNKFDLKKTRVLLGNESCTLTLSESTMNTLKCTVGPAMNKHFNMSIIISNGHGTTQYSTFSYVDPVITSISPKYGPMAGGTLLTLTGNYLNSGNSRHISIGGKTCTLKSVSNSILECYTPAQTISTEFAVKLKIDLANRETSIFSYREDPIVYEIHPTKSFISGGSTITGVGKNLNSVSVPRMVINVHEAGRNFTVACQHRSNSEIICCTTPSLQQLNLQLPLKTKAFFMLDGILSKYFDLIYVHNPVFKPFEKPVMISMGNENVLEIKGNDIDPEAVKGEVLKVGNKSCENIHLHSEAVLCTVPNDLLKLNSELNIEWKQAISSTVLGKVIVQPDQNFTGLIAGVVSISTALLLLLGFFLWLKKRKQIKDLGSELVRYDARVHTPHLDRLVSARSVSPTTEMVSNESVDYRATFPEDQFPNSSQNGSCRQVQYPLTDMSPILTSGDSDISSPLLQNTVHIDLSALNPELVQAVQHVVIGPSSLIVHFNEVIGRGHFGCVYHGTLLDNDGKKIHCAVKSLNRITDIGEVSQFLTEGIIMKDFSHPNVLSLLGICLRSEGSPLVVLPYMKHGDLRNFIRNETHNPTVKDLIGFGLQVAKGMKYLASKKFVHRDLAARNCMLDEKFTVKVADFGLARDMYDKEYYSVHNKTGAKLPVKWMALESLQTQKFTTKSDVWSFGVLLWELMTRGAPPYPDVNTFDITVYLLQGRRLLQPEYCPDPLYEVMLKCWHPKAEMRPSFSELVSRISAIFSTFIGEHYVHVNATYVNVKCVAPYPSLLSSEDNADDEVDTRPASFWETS
Test [2] deals with T1, c-Met. The test can be described thus: Affinity for c-Met of the four affinity-matured antibodies. Set-up: endogenous in cells; host or cells: EBC1 cells (JCRB JCRB0820). It is filed as binding.

B1: huAbF46-H4-A1: affinity-matured humanized anti-c-Met antibody, L3-1 origin CDR-L3, U6-HC7 hinge (antibody)
heavy: EVQLVESGGGLVQPGGSLRLSCAASGFTFTDYYMSWVRQAPGKGLEWLGFIRNKANGYTTEYSASVKGRFTISRDNSKNTLYLQMNSLRAEDTAVYYCARDNWFAYWGQGTLVTVSSASTKGPSVFPLAPSSKSTSGGTAALGCLVKDYFPEPVTVSWNSGALTSGVHTFPAVLQSSGLYSLSSVVTVPSSSLGTQTYICNVNHKPSNTKVDKKVEPKSCDCH[skipping human IgG1 Fc]
light: DIQMTQSPSSLSASVGDRVTITCKSSQSLLASGNQNNYLAWHQQKPGKAPKMLIIWASTRVSGVPSRFSGSGSGTDFTLTISSLQPEDFATYYCQQSYSRPYTFGQGTKVEIKRTVAAPSVFIFPPSDEQLKSGTASVVCLLNNFYPREAKVQWKVDNALQSGNSQESVTEQDSKDSTYSLSSTLTLSKADYEKHKVYACEVTHQGLSSPVTKSFNRGEC
Regarding B1, the “Akt phosphorylation (rank among the four selected antibodies)” value in the test with Akt was “lowest”. Moreover, in the test with c-Met [1], the “c-Met degradation degree (rank among the four selected antibodies)” value was “lowest”. Moreover, the “affinity for c-Met (rank among the four selected antibodies)” value in the test with c-Met [2] is reported as “highest”.
